# Laboratory results reported in PubChem BioAssay AID488969 (Vanderbilt High Throughput Screening Facility, 2010).
# The full ranking holds about 110,000 compounds; the median of “z-score” is about -0.1, and the highest 2% start at about 2. This is one part of the list. Active and inactive are the calls of the source.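 How the source made its calls: active means z-score in the third read window above 3 or below -3; inactive means the rest.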
# Target: Metabotropic glutamate receptor 8 (Rattus norvegicus) (UniProt P70579)
# Experiment: rat mGluR8 modulators via GIRK flux, primary screen, cell-based, thallium flux, HTS (AID 488969)
# Details: HEK293 rat mGluR8, GIRK (G protein-gated inwardly rectifying potassium channel) thallium flux, FluoZin2; at 10 µM; stronger effect = higher value; submaximal glutamate (EC20) added with thallium
# UniProt P70579, sequence (P70579 whole entry, looked up): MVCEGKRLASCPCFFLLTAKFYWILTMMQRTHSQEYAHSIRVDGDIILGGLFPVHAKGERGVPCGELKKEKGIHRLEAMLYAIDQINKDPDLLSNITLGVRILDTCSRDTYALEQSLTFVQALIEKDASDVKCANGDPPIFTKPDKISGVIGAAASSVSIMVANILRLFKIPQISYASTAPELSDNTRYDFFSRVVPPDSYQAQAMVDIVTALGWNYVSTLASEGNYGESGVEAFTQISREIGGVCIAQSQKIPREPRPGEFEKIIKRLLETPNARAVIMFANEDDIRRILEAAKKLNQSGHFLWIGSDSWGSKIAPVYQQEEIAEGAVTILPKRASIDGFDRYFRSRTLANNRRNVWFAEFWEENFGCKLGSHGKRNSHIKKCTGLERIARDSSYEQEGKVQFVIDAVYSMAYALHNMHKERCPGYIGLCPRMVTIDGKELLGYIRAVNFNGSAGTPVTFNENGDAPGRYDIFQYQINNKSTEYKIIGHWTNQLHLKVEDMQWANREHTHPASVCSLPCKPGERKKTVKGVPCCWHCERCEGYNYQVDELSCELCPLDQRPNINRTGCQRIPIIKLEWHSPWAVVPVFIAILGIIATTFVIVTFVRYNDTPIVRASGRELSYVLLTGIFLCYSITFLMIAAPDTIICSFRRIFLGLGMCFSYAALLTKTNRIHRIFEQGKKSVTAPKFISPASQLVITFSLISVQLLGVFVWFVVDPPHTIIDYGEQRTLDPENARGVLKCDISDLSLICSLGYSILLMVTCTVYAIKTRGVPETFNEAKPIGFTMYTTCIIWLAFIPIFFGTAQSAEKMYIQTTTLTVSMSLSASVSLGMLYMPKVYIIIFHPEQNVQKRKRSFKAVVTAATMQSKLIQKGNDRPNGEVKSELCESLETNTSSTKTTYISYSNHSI
row,Structure (SMILES),z-score
1,O=C(O)CC1C(=O)NCCN1Cc1ccc(F)c(F)c1 (centres undefined),-0.183
2,Cc1cc(Nc2ccccc2)n(-c2ccc(Br)cc2)n1,-0.541
3,c1ccc(-n2ncc(-c3nn[nH]n3)n2)cc1,1.62
4,Cc1cccc(Nc2nc(N3CCCC3)nc(N3CCCC3)n2)c1,0.00977
5,COc1ccc(C(C(=O)NC2CCCC2)N(C(=O)c2snc(-c3ccc(F)cc3)c2N)c2ccccc2)cc1 (centres undefined),-0.157
6,CCOC(=O)N1CCC(NC(=O)c2oc3c(c2C)-c2[nH]ncc2CC3)CC1,0.028
7,CCn1c(-c2ccc([N+](=O)[O-])cc2)n[nH]c1=S,-0.246
8,O=C(Cc1cccs1)N1CCCC(c2nc3c(nnn3Cc3cccc(Cl)c3)c(=O)[nH]2)C1 (centres undefined),-0.459
9,O=C(Nc1c(-c2cccs2)nc2ccccn12)c1ccc2ccccc2c1,0.00499
10,CCN(CC)C(=O)C(C)OC(=O)c1ccc(O)cc1 (centres undefined),0.46
11,CCOC(=O)c1ccc(N2Cc3ccccc3C2=NC(=O)c2cccs2)cc1,-0.139
12,COc1ccc([N+](=O)[O-])cc1NC(=O)C(C)OC(=O)c1ccccc1C(=O)c1ccc(Cl)cc1 (centres undefined),0.0662
13,Cc1nn(C)cc1CNC(=O)c1cccc(Br)c1,-0.121
14,CCCCNC(=O)OCC(CC)NC(=O)OCC(C)C (centres undefined),0.0801
15,O=C(NCCN1CCN(c2cccc(Cl)c2)CC1)C1CCCN(S(=O)(=O)c2cnc[nH]2)C1 (centres undefined),-0.0551
16,COc1ccccc1NC(=O)c1nn(C)cc1Br,0.0965
17,O=C(CCN1C(=O)C2(OCCO2)c2ccccc21)c1ccccc1,-0.063
18,CC1(C)Cc2ccccc2C(=C(C#N)C#N)N1,-0.285
19,COc1ccc(CNC(=O)CSCc2ccccc2Cl)cc1,active: 4.96
20,S=C1N(c2ccccc2)C(c2cccc3ccccc23)N2CCCN12 (centres undefined),0.228
21,c1ccc(-n2nnnc2N2CCOCC2)cc1,0.0754
22,CC1Cc2ccccc2N1C(=O)CSc1nc(N)cc(=O)[nH]1 (centres undefined),-0.205
23,CC(C)(C)n1nnnc1C(c1ccc(F)cc1)N(Cc1ccc(F)cc1)Cc1ccco1 (centres undefined),-0.0416
24,COc1cccc(NC(=O)Nc2cccs2)c1,1.67
25,CCn1c(=O)c(C(=O)NCCc2ccccc2)c(O)c2ccccc21,0.613

row,Structure (SMILES),z-score
1,O=C(Cc1ccccc1)NCc1nc2ccccc2[nH]1,0.328
2,CC(C)OC(=O)c1nnc(-c2ccccc2)nc1OC(C)C,-0.673
3,CC1C(=O)CC(c2ccco2)NC1c1ccco1 (centres undefined),-0.0439
4,O=C(Cc1ccc(Cl)cc1)NCC(=O)N1CCCC1,0.183
5,CC(C)c1ccc(C2C3=C(CC(C)(C)CC3=O)NC3=C2C(=O)c2ccccc23)cc1 (centres undefined),-0.137
6,COc1cccc(N(CC(=O)N/N=C(\C)c2cccs2)S(C)(=O)=O)c1,-0.154
7,Cc1ccc(S(=O)(=O)N(CC(=O)NCCC2=CCCCC2)Cc2ccccc2F)cc1,-0.964
8,COc1cc(/C=N/NC(N)=S)ccc1OCc1ccc(C)cc1,0.0722
9,CCOc1ccc(NC(=O)CC(c2ccccc2)c2ccc(F)cc2)cc1 (centres undefined),-0.263
10,Oc1ccc(Nc2nc(Cl)nc(NCc3ccco3)n2)cc1,-0.585
11,Cc1cccc(-n2c(N)c(C(=O)N3CCN(C)CC3)sc2=S)c1,0.41
12,O=C(CSc1nc2ccccc2c(=O)n1-c1ccccc1)NCc1ccc2c(c1)OCO2,-0.78
13,CCOC(=O)Cn1cc([N+](=O)[O-])c(OC)n1,-0.119
14,CC(CC1CC(C)(C)OC1=O)C(=O)Nc1ccc([N+](=O)[O-])cc1 (centres undefined),-0.147
15,O=C(N/C(=C/c1ccco1)C(=O)N1CCCCC1)c1cccs1,-0.162
16,CCCCCNCc1cccc(Br)c1,-0.393
17,CCCCNc1nc2ccccc2n1CC(=O)N1CCc2ccccc2C1,-0.119
18,C=CCNC(=O)CCCC(=O)NCC=C,-0.125
19,CCC(=O)N(Cc1ccco1)c1nc(C(=O)Nc2ccc(Cl)cc2)c(C)s1,0.394
20,CCCCCc1nnc(NC(=O)C2CCCO2)s1 (centres undefined),-0.163
21,O=C1CN(C(=O)CSc2nnc3ccccn23)c2ccccc2N1,1.1
22,CCCCOC(=O)CSc1nnc(N)s1,0.12
23,CCCCn1c(SCC(=O)Nc2nnc(C)s2)nnc1-c1ccoc1C,-0.33
24,Cc1cccc(CNC(=O)c2ccccc2N)c1,-0.133
25,CCOc1ccc2c(c1)sc1nc(C(=O)OC)cc(=O)n12,0.0959

row,Structure (SMILES),z-score
1,O=C(OCc1ccccc1)C1=[N+]([O-])OC(C(=O)OCc2ccccc2)C1c1c[nH]c2ccccc12 (centres undefined),-0.556
2,CCOC(=O)C1=C(c2ccccc2)NC(SCC(N)=O)=C(C#N)C1c1cccnc1 (centres undefined),-0.49
3,Cc1ccc(S(=O)(=O)N2CCOCC2)cc1C(=O)OCC(=O)NC1CCS(=O)(=O)C1 (centres undefined),-0.0825
4,O=C(Nc1ccn(Cc2ccccc2F)n1)c1ccc(COc2cccc(Br)c2)cc1,-0.131
5,CCOC(=O)c1ccc(-n2c(C)nc3ccccc3c2=O)cc1,-0.0432
6,COc1ccccc1N1CCN(C(=O)C(Sc2ccccc2)c2ccccc2)CC1 (centres undefined),-0.381
7,O=c1c2cc(Cl)ccc2[nH]c(=S)n1Cc1ccccn1,1.21
8,O=C(/C=C/c1cc([N+](=O)[O-])ccc1OC(F)F)NCc1ccc(Cl)cc1,-0.096
9,Cc1ccc(C)c(N2CCN(C(=O)c3ccccc3Br)CC2)c1,-0.62
10,Cc1ccc(C(N)=O)cc1S(=O)(=O)Nc1cccc(C)c1C,0.112
11,Cc1ccc(C2=NNC(=O)C(c3ccc(Cl)cc3)C2)cc1 (centres undefined),-0.12
12,COc1cccc(-c2ccc(C#N)c(OC(=O)c3c(Cl)cccc3Cl)n2)c1,-0.076
13,Cc1cc(C)c2ccc(C(=O)O)nc2c1O,0.0642
14,COn1c(=O)c(=O)n(O)c2ccccc21,-0.141
15,Cc1nn(Cc2ccc(F)cc2)c2sc(C(=O)Nc3ccccc3N3CCOCC3)cc12,-0.168
16,Cc1ccc(NC(=O)N2CCC(C(=O)Nc3ccc(C)cc3C)CC2)cc1,0.557
17,Cn1ncc(C#N)c1/N=C/N(Cc1ccccc1)Cc1ccccc1,-0.916
18,O=C(NC1CCCCC1)c1ccc(Br)o1,0.245
19,CN(C)S(=O)(=O)c1ccc(N2CCOCC2)nc1,-0.141
20,CCCCCc1nnc(NC(=O)Cc2cccs2)s1,active: 12.3
21,CCCCN(CCCC)c1cn[nH]c(=O)c1Cl,-2.43
22,O=C1CC(N2CCN(c3ccc(S(=O)(=O)N4CCOCC4)cc3)CC2)C(=O)N1Cc1ccccc1 (centres undefined),-0.165
23,NS(=O)(=O)c1ccc(Nc2nc(-c3ccc(O)cc3)cs2)cc1,-0.459
24,Cc1nc2ccccc2n1/C(=N\S(=O)(=O)c1ccccc1)c1ccccc1,-0.00784
